Data on 79 compounds can be found in the supplement of paper PMC10600219.

Values joined by “and” are separate entries in the source; they are usually repeats but may differ in a detail not shown here. Equal entries are not always repeated. Structures can show the parent of a compound that is named as a salt. Over roughly 2,800 compounds, “cell viability relative to vehicle” has its median near 1.1; the lowest 2% begin near 0.19. This is one part of the list.

This test relates to NCI-H2228 parental. Kind of test: cell viability relative to vehicle (fraction of vehicle); NCI-H2228 is an ALK-positive lung cancer line and DTP means drug-tolerant persister; higher = less growth inhibition. Conditions: 100 nM; treatment time 6 days. The method in brief: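 The 3114-agent TargetMol anti-cancer compound library was tested at 100 nM for 6 days on parental NCI-H2228 cells and on persister cells derived with 1000 nM of a targeted drug for 13 days. ATP readout by the CellTiter-Glo 3D Cell Viability Assay gave cell viability relative to DMSO vehicle-treated cells.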
Consider `O=P(O)(O)C(O)(Cn1ccnc1)P(=O)(O)O` [Zoledronic Acid], for which the cell viability stood at 0.944. The same measure for `COc1ccc2c3n(c(=NC(=O)c4cccnc4)nc2c1OC)CCN3`: 0.536; for `CC(=O)O[C@H]1CC(=O)OC(C)(C)[C@@H]2CC(=O)[C@]3(C)[C@H](CC[C@@]4(C)[C@@H](c5ccoc5)OC(=O)[C@H]5O[C@]543)[C@@]12C` [Nomilin]: 1.13. Regarding `Nc1ccn([C@H]2C[C@H](O)[C@@H](CO)O2)c(=O)n1` [2'-Deoxycytidine monohydrate], the cell viability was 1.07.

With `CCN(CC)c1ccc(/C=N/NC(=O)c2ccc(O)cc2)cc1`, the cell viability was 1.07.

On to `CCCCCOc1ccccc1/C(=C\SC)n1ccnc1` [Neticonazole Hydrochloride], for which the cell viability came out at 0.981. The same measure for `CO[C@H]1/C=C/O[C@@]2(C)Oc3c(C)c(O)c4c(O)c(c5c(nc6cc(C)ccn65)c4c3C2=O)NC(=O)/C(C)=C\C=C\[C@H](C)[C@H](O)[C@@H](C)[C@@H](O)[C@@H](C)[C@H](OC(C)=O)[C@@H]1C` [Rifaximin]: 1.03. The same measure for `C[C@]12C=CC(=O)N[C@@H]1CC[C@@H]1[C@@H]2CC[C@]2(C)[C@@H](C(=O)Nc3cc(C(F)(F)F)ccc3C(F)(F)F)CC[C@@H]12` [Dutasteride]: 1.08. In the case of `Clc1cccc(Cl)c1NC1=NCCN1` [Clonidine hydrochloride] it was 1.03; in that of `CN(C)S(=O)(=O)c1ccc2c(c1)/C(=C/c1cc3c([nH]1)CCCC3)C(=O)N2`, 1.07; in that of `Cn1ncnc1[C@H]1c2n[nH]c(=O)c3cc(F)cc(c23)N[C@@H]1c1ccc(F)cc1` [Talazoparib], 0.618. With `Cc1cnc(Nc2ccc(OCCN3CCCC3)cc2)nc1Nc1cccc(S(=O)(=O)NC(C)(C)C)c1` [Fedratinib], the cell viability stood at 1.04.

Take `C=CCN(C)CCCCCCOc1ccc(C(=O)c2ccc(Br)cc2)c(F)c1` [Ro 48-8071 fumarate]: the cell viability was found to be 1.07. In the case of `CC(=O)O[C@]1(C(C)=O)CC[C@H]2[C@@H]3C=C(Cl)C4=CC(=O)CC[C@]4(C)[C@H]3CC[C@@]21C` [Chlormadinone acetate] it was 0.992.

Regarding `COc1ccc(Cl)c(Nc2nc3ccccc3nc2NS(=O)(=O)c2cccc(NC(=O)C(C)(C)N)c2)c1` [Pilaralisib], the cell viability is 1.12. On to `CCCNC(=O)NS(=O)(=O)c1ccc(Cl)cc1` [Chlorpropamide], for which the cell viability came to 1.24. As to `O=C(Cc1ccccc1)Nc1nnc(CCSCCc2nnc(NC(=O)Cc3ccccc3)s2)s1`, the cell viability came out at 1.1. The same measure for `c1ccc2c(CCNc3ccc(Nc4ccncc4)cc3)c[nH]c2c1` [Serdemetan]: 0.998; for `C[C@H](O)[C@@H](O)[C@@H](O)[C@H](O)C=O` [L-(-)-Fucose]: 1.08.

Regarding `NCCCCCC(=O)O` [6-Aminocaproic acid], the cell viability worked out at 1.05.

As for `CN(C)C(=N)NC(=N)N` [Metformin hydrochloride], the cell viability amounted to 1.14. For the compound `COc1c(C)cnc(Cn2cnc3c(Cl)nc(N)nc32)c1C`, the cell viability came out at 0.277. The same measure for `CC1=C(C)C(=O)C(C(CCCCCC(=O)O)c2ccccc2)=C(C)C1=O` (centres undefined) [Seratrodast]: 0.986; for `CNCCc1ccccn1` [Betahistine]: 0.93; for `CNCCc1ccccn1` [Betahistine mesylate]: 1.

Regarding `CNCCc1ccccn1` [Betahistine dihydrochloride], the cell viability came out at 1.1.

Turning to `Cc1csc(-c2nnc(Nc3ccc(Oc4ncccc4-c4ccnc(N)n4)cc3)c3ccccc23)c1`, the cell viability was determined as 0.143. Consider `CC(C)c1cccc(O)c(=O)c1` [β-thujaplicin], for which the cell viability came to 0.965.

As for `Nc1nc2c(ncn2COC(CO)CO)c(=O)[nH]1` [Ganciclovir], the cell viability came to 1.1. In the case of `C[C@H]1[C@H](C)CC[C@]2(C(=O)O)CC[C@]3(C)C(=CC[C@@H]4[C@@]5(C)CC[C@H](O)C(C)(C)[C@@H]5CC[C@]43C)[C@H]12` [Ursolic acid] it was 1.17; in that of `NC(=O)Nc1cc(-c2cccc(F)c2)sc1C(=O)N[C@H]1CCCNC1`, 0.381; in that of `OC(c1cc(-c2ccc(Cl)cc2)nc2ccccc12)C1CCCCN1` (centres undefined) [Vacquinol-1], 1.15.

As to `CC(=O)[C@@]1(O)CC[C@H]2[C@@H]3CCC4=CC(=O)CC[C@]4(C)[C@H]3CC[C@@]21C` [Hydroxyprogesterone], the cell viability is 1.35. Regarding `O=C(c1c(F)ccc(NS(=O)(=O)N2CC[C@@H](F)C2)c1F)c1c[nH]c2ncc(-c3cnc(C4CC4)nc3)cc12`, the cell viability was 1.18.

For the compound `Nc1nc(O)c2[nH]nnc2n1` [8-Azaguanine], the cell viability turned out to be 0.571. In the case of `COc1cccc2c(NCc3ccccc3)nc(-n3c(N)nc4ccccc43)nc12` it was 1.12. The same measure for `Nc1nccc(Oc2ccc(NC(=O)c3c[nH]cc(-c4ccc(F)cc4)c3=O)cc2F)c1Cl`: 1.14; for `CN(C)CCOC(c1ccccc1)c1ccccc1.Cn1c(=O)c2[nH]c(Cl)nc2n(C)c1=O` [Dimenhydrinate]: 1.1; for `CCS(=O)(=O)N1CC(CC#N)(n2cc(-c3ncnc4[nH]ccc34)cn2)C1` [Baricitinib]: 0.886. The same measure for `CCS(=O)(=O)N1CC(CC#N)(n2cc(-c3ncnc4[nH]ccc34)cn2)C1` [Baricitinib Phosphate]: 1.3; for `O=C1NCC2(CCN(CCc3ccccc3)CC2)O1` [Fenspiride hydrochloride]: 1.12.

Turning to `Clc1ccc2c(c1)CCc1cccnc1C2=C1CCNCC1` [Desloratadine], the cell viability was determined as 1.2. The same measure for `C[C@@H]1O[C@@H](O[C@@H]2[C@@H](O)[C@H](OCCc3ccc(O)c(O)c3)O[C@H](COC(=O)/C=C/c3ccc(O)c(O)c3)[C@H]2O)[C@H](O)[C@H](O)[C@H]1O` [Isoacteoside]: 1.02. In the case of `Cc1cc(C)c(S(=O)(=O)N(CCc2cccc(Br)c2)Cc2ccc(-c3cccc(S(C)(=O)=O)c3)cc2)c(C)c1` it was 1.19; in that of `O=S(=O)(c1cccc2c(O)nccc12)N1CCCNCC1` [Hydroxyfasudil Hydrochloride], 1.06; in that of `Cc1[nH]cnc1CN1CCc2c(c3ccccc3n2C)C1=O` [Alosetron hydrochloride], 1.14. As for `O=C(O)CCc1ccc(NCc2cccc(Oc3ccccc3)c2)cc1`, the cell viability came out at 1.1. Turning to `COc1cc(C(C)C)c(Oc2cnc(N)nc2N)cc1I`, the cell viability came to 1.16. The same measure for `COc1cn(-c2ccc(-n3cccn3)cc2F)nc(-c2ccnn2-c2ccccc2)c1=O`: 1.08; for `Nc1ncnc2c1ncn2[C@@H]1O[C@H](CO)[C@@H](O)[C@@H]1O` [Vidarabine]: 0.968. `CC(=O)OCC1=CO[C@@H](OC(=O)CC(C)C)[C@H]2C1=C[C@H](OC(=O)CC(C)(C)OC(C)=O)[C@]21CO1` [Acevaltrate]: the cell viability turned out to be 1.04.

Regarding `CC1OC2(CS1)CN1CCC2CC1` (centres undefined) [Cevimeline hydrochloride hemihydrate], the cell viability amounted to 0.887. The same measure for `CC[C@H](C)[C@H](N)C(=O)O` [isoleucine]: 1.16. In the case of `CCOc1nc2cccc(C(=O)O)c2n1Cc1ccc(-c2ccccc2-c2nnn[nH]2)cc1` [Candesartan] it was 1.24; in that of `CCOC(=O)N1CCC(CN(Cc2ccc(Cl)cc2)Cc2ccc([N+](=O)[O-])s2)C1` (centres undefined), 0.991; in that of `O=C(Oc1cccc(F)c1OC(=O)c1cccc(O)c1)c1cccc(O)c1`, 1.11. As for `CCCNC(=O)c1cn2ncnc(Nc3cc(C(=O)NC4CC4)ccc3C)c2c1C`, the cell viability amounted to 1.1. Take `O=C(Nc1cccnc1)c1cc(-c2ccnc(F)c2)ccc1OCc1ccccc1`: the cell viability was 1.09. The same measure for `COc1cc2ncnc(Nc3cccc(Br)c3)c2cc1OC`: 0.975 and 1.03; for `CN(C)CCC(c1ccc(Br)cc1)c1ccccn1` (centres undefined) [Brompheniramine hydrogen maleate]: 1.09. In the case of `COc1cc2c(cc1O)CC[n+]1cc3c(OC)c(OC)ccc3cc1-2` [Jatrorrhizine] it was 1.06; in that of `c1ccc(-c2ccc(C(c3ccccc3)n3ccnc3)cc2)cc1` (centres undefined) [Bifonazole], 1.08; in that of `COc1cc2ncnc(Nc3cccc(Cl)c3F)c2cc1OC(=O)N1CCN(C)C[C@H]1C`, 1.06. With `COc1cc2ncnc(Nc3cccc(Cl)c3F)c2cc1OC(=O)N1CCN(C)C[C@H]1C` [AZD3759 hydrochloride], the cell viability worked out at 1.1. The same measure for `CCCCCCCCCC(=O)CC(O)S(=O)(=O)O` (centres undefined) [Sodium houttuyfonate]: 1.09. The same measure for `CC(C)Oc1ccc(-c2nn([C@@H](C)c3oc4ccc(F)cc4c(=O)c3-c3cccc(F)c3)c3ncnc(N)c23)cc1F`: 1.01; for `CC(C)=CC(=O)CCC(=O)N1CCN(Cc2cc3nc(-c4cccc5[nH]ncc45)nc(N4CCOCC4)c3s2)CC1`: 1.01; for `CC(=O)OC[C@H]1O[C@@H]([S-])[C@H](OC(C)=O)[C@@H](OC(C)=O)[C@@H]1OC(C)=O.CCP(CC)CC.[Au+]` [Auranofin]: 0.905. As to `COc1cc(Nc2c(C#N)cnc3cc(OCCCN4CCN(C)CC4)c(OC)cc23)c(Cl)cc1Cl` [Bosutinib], the cell viability was found to be 1.06. As to `CCCCc1oc2ccc(NS(C)(=O)=O)cc2c1C(=O)c1ccc(OCCCN(CCCC)CCCC)cc1` [Dronedarone hydrochloride], the cell viability is 1.07.

Turning to `COc1ccc(C(c2c[nH]c3ccccc23)c2c[nH]c3ccccc23)cc1`, the cell viability came out at 1.05. For the compound `CCC1(c2ccccc2)C(=O)NCNC1=O` [Primidone], the cell viability is 1.16. Consider `CCCCCCCCNc1cc(=O)[nH]c(=O)[nH]1`, for which the cell viability is 1.01. The same measure for `CCOC(=O)[C@H]1O[C@@H]1C(=O)N[C@@H](CC(C)C)C(=O)NCCC(C)C` [Aloxistatin]: 1.12.

Consider `Cc1noc(-c2ccc(-c3ccc(CC(=O)O)cc3)cc2)c1NC(=O)OC(C)c1ccccc1Cl` (centres undefined), for which the cell viability was determined as 0.97. With `CCN1CCN(Cc2ccc(NC(=O)Nc3ccc(Oc4cc(NC)ncn4)cc3)cc2C(F)(F)F)CC1`, the cell viability was found to be 1.19. The same measure for `CC(C)NCC(O)COc1ccc(CC(N)=O)cc1` (centres undefined) [Atenolol]: 1.1; for `COCC(=O)NC/C=C/c1ccc2ncnc(Nc3ccc(Oc4ccc(C)nc4)c(C)c3)c2c1`: 0.991.

`CC(C)(O)[C@H]1CC[C@H](Nc2ccc3ncc(-c4cccc(C(F)(F)F)c4)n3n2)CC1`: the cell viability is 0.928.
